Experimental data published in paper PMC10423209.
Results are given in words; binding and its absence hold for the method and conditions named. Binding seen in cells or lysates may run through a third protein. Some results given as binding are weak or reduced against the parent protein; the word gives no strength. For part of these data: Sequences can lack the tags named with a protein.

Chains of the proteins cited; added tags and fusions are not shown. Lines headed by an entry give the natural chain unless they say otherwise; changes in a name come on top.
UniProt Q15599: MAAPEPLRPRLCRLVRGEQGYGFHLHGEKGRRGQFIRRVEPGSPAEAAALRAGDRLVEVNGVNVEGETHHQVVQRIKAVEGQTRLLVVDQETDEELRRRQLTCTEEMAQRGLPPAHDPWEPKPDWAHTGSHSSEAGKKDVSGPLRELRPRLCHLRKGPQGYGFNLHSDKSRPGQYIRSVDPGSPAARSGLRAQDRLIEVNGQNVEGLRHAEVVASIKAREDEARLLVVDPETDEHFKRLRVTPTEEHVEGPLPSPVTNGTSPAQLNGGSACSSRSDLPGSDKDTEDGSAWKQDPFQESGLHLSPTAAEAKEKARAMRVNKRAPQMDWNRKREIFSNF

T1: Flag-SLC26A3 (wild type) (human) (UniProt P40879)
T1 sequence: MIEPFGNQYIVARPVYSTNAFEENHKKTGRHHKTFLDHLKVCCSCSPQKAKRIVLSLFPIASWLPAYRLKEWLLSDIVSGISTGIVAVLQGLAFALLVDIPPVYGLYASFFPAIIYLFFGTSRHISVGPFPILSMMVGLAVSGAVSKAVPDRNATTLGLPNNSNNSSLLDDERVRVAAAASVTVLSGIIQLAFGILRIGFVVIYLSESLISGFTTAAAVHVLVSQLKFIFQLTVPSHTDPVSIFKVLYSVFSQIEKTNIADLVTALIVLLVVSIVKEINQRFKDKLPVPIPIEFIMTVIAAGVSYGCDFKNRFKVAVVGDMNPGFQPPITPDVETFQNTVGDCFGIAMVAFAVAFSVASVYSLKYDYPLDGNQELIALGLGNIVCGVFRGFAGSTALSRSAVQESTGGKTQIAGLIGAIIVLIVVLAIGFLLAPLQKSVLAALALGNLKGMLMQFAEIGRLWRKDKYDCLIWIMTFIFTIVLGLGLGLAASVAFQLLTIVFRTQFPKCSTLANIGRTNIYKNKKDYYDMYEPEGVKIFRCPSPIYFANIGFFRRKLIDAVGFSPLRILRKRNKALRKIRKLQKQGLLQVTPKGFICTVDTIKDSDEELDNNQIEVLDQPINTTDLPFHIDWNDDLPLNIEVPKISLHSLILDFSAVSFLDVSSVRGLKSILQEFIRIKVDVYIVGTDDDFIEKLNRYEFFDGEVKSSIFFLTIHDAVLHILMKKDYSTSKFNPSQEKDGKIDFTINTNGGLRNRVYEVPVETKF

T2: Flag-SLC26A3-C terminal fragment (human) (UniProt P40879)
T2 sequence: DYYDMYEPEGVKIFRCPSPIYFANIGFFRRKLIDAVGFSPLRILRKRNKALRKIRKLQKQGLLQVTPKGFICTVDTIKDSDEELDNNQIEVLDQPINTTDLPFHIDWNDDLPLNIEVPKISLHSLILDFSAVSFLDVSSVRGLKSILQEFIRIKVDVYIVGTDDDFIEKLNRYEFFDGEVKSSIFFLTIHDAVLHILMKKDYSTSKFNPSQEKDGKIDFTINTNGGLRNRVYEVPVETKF

T3: Flag-SLC26A3 N-terminal domain fragment (human) (UniProt P40879)
T3 sequence: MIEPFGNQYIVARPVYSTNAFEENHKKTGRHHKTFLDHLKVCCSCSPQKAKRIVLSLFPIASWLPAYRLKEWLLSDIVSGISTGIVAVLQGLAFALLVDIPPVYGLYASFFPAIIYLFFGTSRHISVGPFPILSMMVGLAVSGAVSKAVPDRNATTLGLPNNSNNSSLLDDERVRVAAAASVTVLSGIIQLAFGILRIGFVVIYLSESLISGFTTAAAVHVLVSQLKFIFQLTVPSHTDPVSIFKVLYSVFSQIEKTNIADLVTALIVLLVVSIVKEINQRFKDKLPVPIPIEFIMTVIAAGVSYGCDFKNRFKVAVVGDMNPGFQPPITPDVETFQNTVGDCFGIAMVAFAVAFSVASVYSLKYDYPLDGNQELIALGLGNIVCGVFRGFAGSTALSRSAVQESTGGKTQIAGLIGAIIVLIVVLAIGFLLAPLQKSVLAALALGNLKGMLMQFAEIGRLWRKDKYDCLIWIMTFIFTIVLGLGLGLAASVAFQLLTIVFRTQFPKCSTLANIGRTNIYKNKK

T4: endogenous SLC26A3 (human (endogenous in HCT116 and Caco2)) (UniProt P40879)
T4 sequence: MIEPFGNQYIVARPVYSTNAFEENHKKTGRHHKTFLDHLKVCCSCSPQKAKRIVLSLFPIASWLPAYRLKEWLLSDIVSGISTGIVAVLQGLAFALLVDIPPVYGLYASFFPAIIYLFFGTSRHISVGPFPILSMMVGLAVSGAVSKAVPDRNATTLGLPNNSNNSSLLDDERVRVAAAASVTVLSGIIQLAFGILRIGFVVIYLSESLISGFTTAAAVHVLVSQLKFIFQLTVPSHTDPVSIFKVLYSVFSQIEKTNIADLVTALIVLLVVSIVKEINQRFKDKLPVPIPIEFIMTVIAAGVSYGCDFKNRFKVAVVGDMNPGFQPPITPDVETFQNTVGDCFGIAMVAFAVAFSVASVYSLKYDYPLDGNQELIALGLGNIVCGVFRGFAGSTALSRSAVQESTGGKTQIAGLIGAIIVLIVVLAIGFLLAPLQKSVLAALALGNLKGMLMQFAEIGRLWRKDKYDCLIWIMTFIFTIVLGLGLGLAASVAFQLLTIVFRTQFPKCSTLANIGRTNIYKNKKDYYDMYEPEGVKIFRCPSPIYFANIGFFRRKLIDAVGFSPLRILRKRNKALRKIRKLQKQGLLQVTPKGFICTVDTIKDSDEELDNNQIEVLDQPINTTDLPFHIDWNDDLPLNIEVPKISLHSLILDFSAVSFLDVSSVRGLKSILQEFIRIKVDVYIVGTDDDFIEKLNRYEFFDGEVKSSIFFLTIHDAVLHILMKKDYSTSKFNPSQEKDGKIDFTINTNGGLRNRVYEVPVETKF


How the values were obtained:
[1] = biological target: T1, Flag-SLC26A3 (wild type) (human); experiment: co-IP; HEK293T (for the two fragments also HCT116) co-transfected with Flag-SLC26A3 and Myc-NHERF2 constructs for 48 h; Flag-tagged and Myc-tagged anti-beads
[2] = biological target: T2, Flag-SLC26A3-C terminal fragment (human); experiment: as above
[3] = biological target: T3, Flag-SLC26A3 N-terminal domain fragment (human); experiment: as above
[4] = biological target: T1, Flag-SLC26A3 (wild type) (human); experiment: co-IP; HCT116, Caco2 and HEK293T cells; SLC26A3 with exogenous or endogenous NHERF2 (Fig. S4A-C)
[5] = biological target: T4, endogenous SLC26A3 (human (endogenous in HCT116 and Caco2)); experiment: co-IP; endogenous proteins in HCT116 and Caco2 cells; SLC26A3 antibody (5 μg/mL, Santa Cruz) to IP SLC26A3
[6] = biological target: reconstituted GST fusion NHERF2 protein (human) (UniProt Q15599); experiment: pull-down; GST pulldown with reconstituted GST-NHERF2 purified from a prokaryotic expression system and a Flag-tagged partner, in vitro; only the target purified

Molecule | binding [1] | binding [2] | binding [3] | binding [4] | binding [5] | binding [6]
Myc-NHERF2 (wild type) (from UniProt Q15599 1-337) | binds | binds | no binding | binds | – | –
Myc-NHERF2-N terminal fragment (from UniProt Q15599 1-228) (domain or fragment) | binds | binds | – | – | – | –

Next, values leading:

binding [1] | binding [2] | binding [3] | binding [4] | binding [5] | binding [6] | Molecule
– | – | – | binds | binds | – | endogenous NHERF2 (from UniProt Q15599 1-337)
– | – | – | – | – | binds | Flag-SLC26A3 (wild type) (protein, UniProt P40879 1-764) MIEPFGNQYIVARPVYSTNAFEENHKKTGRHHKTFLDHLKVCCSCSPQKAKRIVLSLFPIASWLPAYRLKEWLLSDIVSGISTGIVAVLQGLAFALLVDIPPVYGLYASFFPAIIYLFFGTSRHISVGPFPILSMMVGLAVSGAVSKAVPDRNATTLGLPNNSNNSSLLDDERVRVAAAASVTVLSGIIQLAFGILRIGFVVIYLSESLISGFTTAAAVHVLVSQLKFIFQLTVPSHTDPVSIFKVLYSVFSQIEKTNIADLVTALIVLLVVSIVKEINQRFKDKLPVPIPIEFIMTVIAAGVSYGCDFKNRFKVAVVGDMNPGFQPPITPDVETFQNTVGDCFGIAMVAFAVAFSVASVYSLKYDYPLDGNQELIALGLGNIVCGVFRGFAGSTALSRSAVQESTGGKTQIAGLIGAIIVLIVVLAIGFLLAPLQKSVLAALALGNLKGMLMQFAEIGRLWRKDKYDCLIWIMTFIFTIVLGLGLGLAASVAFQLLTIVFRTQFPKCSTLANIGRTNIYKNKKDYYDMYEPEGVKIFRCPSPIYFANIGFFRRKLIDAVGFSPLRILRKRNKALRKIRKLQKQGLLQVTPKGFICTVDTIKDSDEELDNNQIEVLDQPINTTDLPFHIDWNDDLPLNIEVPKISLHSLILDFSAVSFLDVSSVRGLKSILQEFIRIKVDVYIVGTDDDFIEKLNRYEFFDGEVKSSIFFLTIHDAVLHILMKKDYSTSKFNPSQEKDGKIDFTINTNGGLRNRVYEVPVETKF
